Laboratory results taken from PubChem BioAssay AID1347073 (National Center for Advancing Translational Sciences (NCATS), 2019).
In all, about 45,000 compounds went through this assay and about 200 (0.44%) were called active. Inconclusive results (about 7%) are left out. Calls come from the whole dose curve; as a rule, active = well fitted activation curve with a large enough effect; inconclusive = small, poorly fitted or top-dose-only effect; inactive = no such curve, though single readings can be large or run the other way. Some of the results follow.

Assay: qHTS of TDP-43 Inhibitors: NCGC Sytravon Library Screen; note: 0% is about no effect; nearly all actives have a fitted effect of over 55% in size
Conditions: yeast TDP-43 toxicity rescue, BacTiter-Glo growth, 24 h; series mostly up to 46.1 µM; growth rescue (activation): at the top concentration
Outline: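 TDP-43-expressing yeast, pregrown in raffinose, seeded at OD600 0.02 in galactose medium with compound for 24 hr at 30 deg C. Growth read by BacTiter-Glo luminescence, so rescue of toxicity appears as activation.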

Structure (SMILES) | growth rescue (activation)
O=C(O)CC(Cc1ccccc1)C(=O)NCC12CC3CC(CC(C3)C1)C2 (configuration not stated) | inactive: -12.3%
COc1ccccc1NC(=O)C1=C(C)NC(=O)NC1c1cccc(OC)c1OC (configuration not stated) | inactive: -11.2%
COC(=O)c1cc(C(=O)NCc2ccccc2)c(=O)[nH]c1C | inactive: 9.72%
Cc1nc2sc(C(=O)Nc3ccccc3)c(N)c2c(C)c1[N+](=O)[O-] | inactive: -13.1%
CC(=O)Nc1ccc(NC(=O)C2CCCN(S(=O)(=O)c3ccc(-n4cnnn4)cc3)C2)cc1 (configuration not stated) | inactive: 9.09%
Cc1ccc(C)c(N(CC(=O)NC2CCCCC2)C(=O)c2csnn2)c1 | inactive: 0.952%
Cc1ccc(NC(=O)c2ccc(Br)cc2)c(C(=O)c2ccccc2)c1 | inactive: 18.1%
O=C(CCN1C(=O)C2C3CCC(C3)C2C1=O)Nc1cccc(Cl)c1 (configuration not stated) | inactive: -12.1%
C=C(C)c1cccc(C(C)(C)NC(=O)Nc2ccc(OC)nc2)c1 | inactive: -14.9%
CC1(C)C2CC=C(/C=N/NC(=O)c3ccccc3O)C1C2 (configuration not stated) | inactive: 10.7%
NC(=O)CSc1nc2c(sc(=S)n2-c2ccccc2)c(=O)[nH]1 | inactive: 7.67%
COc1ccc(NC(=O)CN2C(=O)c3ccccc3S2(=O)=O)cc1S(=O)(=O)N1CCOCC1 | inactive: 14.8%
Cc1ccc(C(=O)CSc2nc(-c3ccccc3)cc(=O)[nH]2)cc1 | inactive: 4.38%
COc1ccc(N=C2NN=C(c3ccc4c(c3)OCCO4)CS2)cc1 | inactive: 19.6%
Cc1ccc(C)c(NC(=S)c2ccc3ccccc3n2)c1 | inactive: 22.2%
O=C(O)c1cc(NC(=O)c2ccccc2[N+](=O)[O-])ccc1O | inactive: -9.18%
CCCCN(C(=O)COc1ccc(NC(C)=O)cc1)C1CCS(=O)(=O)C1 (configuration not stated) | inactive: -1.48%
O=C(NC(c1ccc(Cl)cc1)c1cnccn1)C1CCN(Cc2ccccc2)CC1 (configuration not stated) | inactive: 6.26%
CCCC(=O)NC(=S)N1CCN(c2ccc([N+](=O)[O-])cc2)CC1 | inactive: 11.4%
COc1ccc(CNC(=O)CN(Cc2ccc(Cl)cc2)S(C)(=O)=O)cc1 | inactive: 10.3%
COc1cccc(-c2cnc(C(O)c3cc(F)cc(Cl)c3)[nH]2)c1 (configuration not stated) | inactive: 12.9%
CC(NC(=O)Cn1nc(C(=O)O)c2ccccc2c1=O)C12CC3CC(CC(C3)C1)C2 (configuration not stated) | inactive: 11.8%
CC(=O)c1ccc(N2CCN(C(=O)/C=C/c3cccs3)CC2)cc1 | inactive: 17.4%

Structure (SMILES) | growth rescue (activation)
Cc1c(C(=O)Nc2ccccc2)csc1-c1ccccc1 | inactive: 8.17%
CCC(C)NC(=O)COC(=O)c1ccccc1OCC(=O)Nc1ccc(Br)cc1 (configuration not stated) | inactive: 5.25%
CC(C)CN1CCN(Cc2ccc(CN3CCCCC3)s2)CC1CCO (configuration not stated) | inactive: 2.42%
Cc1ccc(N2C(=O)CC(Cn3nc(C)cc3C)C2=O)cc1 (configuration not stated) | inactive: 17.5%
COc1cccc(N(CC(=O)Nc2cccnc2)S(C)(=O)=O)c1 | inactive: 1.99%
O=C(Nc1ccccc1)/C(=C\c1ccco1)NC(=O)c1ccco1 | inactive: 2%
CCN1CCN(CCNC(=O)c2ccc(/C=C3/Sc4ccccc4N(Cc4cccc(Cl)c4)C3=O)cc2)CC1 | inactive: -16%
O=C(CNC(=O)C1CCCCC1)Nc1ccccc1 | inactive: -1.4%
COc1ccccc1C(CC(=O)c1ccccc1)CC(=O)c1ccccc1 | inactive: 12%
CC(C)CCNC(=S)Nc1ccc([N+](=O)[O-])cc1 | inactive: -81.8%
CN(C)CC(CCC(CN(C)C)C(O)(c1ccccc1)c1ccccc1)C(O)(c1ccccc1)c1ccccc1 (configuration not stated) | inactive: 0.27%
O=C(NC1CCCCCC1)C(=O)NC1CCCC1 | inactive: 0.983%
COc1ccc(CNC(=O)CN2C(=O)NC3(CCCCCCC3)C2=O)cc1 | inactive: 4.02%
O=C(Nc1nc2c(s1)CCCC2)c1cc(-c2ccccc2)nc2ccccc12 | inactive: 31.5%
CCn1nc(C)c(CNC(=O)CC2C(=O)NCCN2CC(C)C)c1C (configuration not stated) | inactive: 8.51%
COc1ccccc1CNC(=O)C1CCC(CNS(=O)(=O)c2ccc(F)cc2)CC1 (configuration not stated) | inactive: -5.22%
COCCCn1c(=O)c2sccc2n2c(CCCC(=O)N(C)Cc3ccco3)nnc12 | inactive: 6.55%
CC1(C)CC(CCN)(Cc2ccccc2Cl)CCO1 (configuration not stated) | inactive: 12.8%
O=C(O)c1cc(O)ccc1NC(=O)c1cccc2ccccc12 | inactive: 24.8%
O=C(CS(=O)CC(=O)Nc1ccccc1-c1ccccc1)Nc1ccc(F)cc1 (configuration not stated) | inactive: -2.02%
Cc1cccc(CN2CCCC(C(=O)Nc3ccc(-c4cscn4)cc3)C2)c1 (configuration not stated) | inactive: -6.15%
CCNC(=O)C1(C)CCN1CCS(=O)(=O)c1ccc(C)cc1 (configuration not stated) | inactive: -5.14%
c1ccc(CCNc2cc(-c3ccc4ccccc4c3)nc3ccnn23)nc1 | inactive: 17%

Structure (SMILES) | growth rescue (activation)
COc1ccccc1N1CCN(C(=O)c2cc(S(=O)(=O)N3CCOCC3)ccc2C)CC1 | inactive: 32.4%
CCOc1ccc(NS(=O)(=O)c2cc(NC(=O)CCS(=O)(=O)c3ccc(C)cc3)ccc2OC)cc1 | inactive: 25.7%
CC(=O)Nc1cc(-c2ccc(C(=O)NC3CC3)cc2)cn2c(-c3cccc(C(F)(F)F)c3)cnc12 | inactive: 13.1%
C(=N\Nc1nc(N2CCCC2)nc(N2CCCC2)n1)/c1ccccc1OCc1ccccc1 | inactive: -7.91%
CN(/N=C/c1ccc(-c2ccc([N+](=O)[O-])cc2)o1)c1ccccc1 | inactive: 2.69%
CN(C)c1ccc(CC(=O)N2CCCCC2c2cc(C(=O)Nc3ccccc3)no2)cc1 (configuration not stated) | inactive: -9.66%
COCc1cccc(-c2csc(C(NC(C)=O)c3ccc(F)c(F)c3)n2)c1 (configuration not stated) | inactive: 19.7%
Cc1nnc(NC(=O)COc2ccc3c(C)cc(=O)oc3c2)s1 | inactive: 23.7%
CC(=O)CSc1ncnc2scc(-c3ccc(F)cc3)c12 | inactive: -0.5%
C=CCn1c(SCC(=O)c2cc(C)n(CCOC)c2C)nc2sc(C)c(C)c2c1=O | inactive: -28.8%
O=C(Cc1cn(-c2ccccc2)nc1-c1ccccc1)N1CCCCC1 | inactive: 27.4%
N#Cc1c(NC(=S)NC(=O)c2ccccc2)sc2c1CCC2 | inactive: 14.7%
COc1ccc(CCNC(=O)c2cc(S(=O)(=O)N3CCC4(CC3)OCCO4)ccc2F)cc1OC | inactive: -0.503%
Cc1ccc2nc(Cn3cc(C(F)(F)F)ccc3=O)cc(=O)n2c1 | inactive: 10.8%
O=C(Nc1cccc(Cl)c1Cl)C1CCCO1 (configuration not stated) | inactive: -0.261%
CCN(CC)S(=O)(=O)c1cccc(NC(=O)COC(=O)C2COc3ccccc3O2)c1 (configuration not stated) | inactive: 11.5%
Cc1nc(C(=O)N2CCc3c([nH]c4ccccc34)C2c2cc(F)ccc2F)cs1 (configuration not stated) | inactive: 14.3%
O=C(COC(=O)c1ccc(N2CCOCC2)c([N+](=O)[O-])c1)Nc1ccc2c(c1)OCO2 | inactive: 24.1%
COc1ccc(/C=C2/C(=O)ON=C2C)cc1Cl | inactive: -6.74%
O=C(NC(=S)Nc1ccc2oc(=O)ccc2c1)c1cccc(Cl)c1 | inactive: -1.16%
Cc1ccc(C(=O)NCC(=O)N(C)Cc2cccc(F)c2)s1 | inactive: -7.24%
